Experimental data published in PubChem BioAssay AID2427 (National Center for Advancing Translational Sciences (NCATS), 2010).
The list shows a part of the results. Further columns of the screen follow, without active or inactive calls. Most of these compounds were active or inconclusive in the main read-out, so they are no random draw.

Biological target: 15-hydroxyprostaglandin dehydrogenase [NAD(+)] (Homo sapiens) (UniProt P15428)
Test: Thermal Shift Assay for Inhibitors of HPGD (15-Hydroxyprostaglandin Dehydrogenase)
Conditions: Recombinant HPGD thermal shift, SYPRO orange DSF, measured here: delta Tm with NADH cofactor, at 250 µM, stronger effect = higher value
Protocol: Assay Overview: Human 15-Hydroxyprostaglandin dehydrogenase (HPGD) catalyzes the inactivation of prostaglandin E2, and plays a major role in cancer biology by antagonizing the oncogenic potential of cyclooxygenase type 2 (COX2). Studies to assess the stability of human 15-PGDH in presence of compounds was performed as described (Niesen et al., 2007) with variations. References 1. Myung SJ, Rerko RM, Yan M, Platzer P, Guda K, Dotson A, Lawrence E, Dannenberg AJ, Lovgren AK, Luo G, Pretlow TP, Newman RA, Willis J, Dawson D, Markowitz SD. 15-Hydroxyprostaglandin dehydrogenase is an in vivo suppressor of colon tumorigenesis. Proc Natl Acad Sci U S A. 2006 Aug 8;103(32):12098-102. 2. Yan M, Rerko RM, Platzer P, Dawson D, Willis J, Tong M, Lawrence E, Lutterbaugh J, Lu S, Willson JK, Luo G, Hensold J, Tai HH, Wilson K, Markowitz SD. 15-Hydroxyprostaglandin dehydrogenase, a COX-2 oncogene antagonist, is a TGF-beta-induced suppressor of human gastrointestinal cancers. Proc Natl Acad Sci U S A. 2004 Dec 14;101(50):17468-73. 3. […]
HPGD was diluted to a final assay concentration of 1 uM in 100 mM Tris buffer, pH 8.0, containing 0.01% Tween-20 and 1:1000 SYPRO orange dye. […] Heat denaturation curves were recorded using a RT-PCR instrument (Mx3005p, Agilent) applying a temperature gradient of 2 degree C/min. […]

UniProt P15428, sequence (P15428 whole entry, looked up): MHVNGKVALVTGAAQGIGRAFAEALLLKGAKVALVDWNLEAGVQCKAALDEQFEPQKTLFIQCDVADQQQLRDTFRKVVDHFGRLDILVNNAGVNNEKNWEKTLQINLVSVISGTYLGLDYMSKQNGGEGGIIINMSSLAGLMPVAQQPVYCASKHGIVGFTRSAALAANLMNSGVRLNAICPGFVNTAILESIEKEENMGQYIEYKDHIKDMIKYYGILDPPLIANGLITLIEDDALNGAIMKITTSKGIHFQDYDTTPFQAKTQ

SMILES | thermal shift (delta Tm) [C]
CN[C@@H](C)[C@H](O)c1ccccc1 | -0.1
CCN(CC)C(=O)c1ccc(NC(=O)c2cc(-n3cnnc3)ccc2Cl)cc1 | 2.2
